Data on 70 compounds can be found in PubChem BioAssay AID1240 (Sanford-Burnham Center for Chemical Genomics, 2008).

The campaign covered roughly 50,000 compounds. About 800 (1.6%) showed an effect of 50% or more. This is one part of the list.

The assay deals with Bcl-2-like protein 10 (Homo sapiens) (UniProt Q9HD36). As to the kind of experiment: TR3 peptide-Bcl-B binding displacers, biochemical primary FP assay, phenotype converters (AID 1240).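 Further: 0% = Bcl-B with tracer peptide and DMSO and 100% = tracer peptide lacking Bcl-B.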 The following applies: GST-Bcl-B / FITC-TR3 peptide fluorescence polarization; stronger effect = higher value; compound at 3.75 mg/L.
UniProt Q9HD36, sequence (Q9HD36 whole entry, looked up): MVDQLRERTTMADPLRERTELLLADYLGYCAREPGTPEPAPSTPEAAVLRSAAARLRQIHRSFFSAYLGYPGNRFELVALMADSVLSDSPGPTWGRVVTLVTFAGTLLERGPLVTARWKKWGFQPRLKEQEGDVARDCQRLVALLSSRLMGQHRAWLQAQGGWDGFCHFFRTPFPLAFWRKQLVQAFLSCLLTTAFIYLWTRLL
Regarding `Oc1[nH]c2ccccc2c1N=NC(=S)N1CCCC1`, the displacement is -14.4%.
`COc1cc2ccccc2cc1C(=O)Nc1ccccc1O`: the displacement is -8.7%.
The result for `CC1=NN(C(=O)CCc2ccccc2)C(O)(c2cccnc2)C1` (stereo not given) reads -23.9%.
The result for `COc1ccc(Cl)cc1C(=O)NCCCN1CCOCC1` reads 5.6%; that for `Cc1cc([N+](=O)[O-])ccc1NCc1cccc([N+](=O)[O-])c1`, 3.1%; that for `CCCCOC(=O)c1ccc(NS(=O)(=O)c2ccc3ccccc3c2)cc1`, 12%.
Take `O=C(O)c1ccc2c(c1)C(=O)N(c1ccc(NC(=O)c3ccc(Cl)cc3Cl)c(Cl)c1)C2=O`: the displacement amounted to 11.8%.
As for `COc1ccc(OC)c(NC(=O)c2ccccc2Br)c1`, the displacement is -11.3%.
Consider `C=CCn1c(=O)[nH]c2sc3c(c2c1=O)CC(C)(C)OC3`, for which the displacement was 1.7%.
To `O=C(N/N=C/c1cccs1)C1CC(=O)N(c2ccccc2)C1` (stereo not given) belongs 25%; to `O=C(OCCN1CCCCC1)c1ccc(O)cc1`, -8.7%; to `COc1ccc(/C=C/C(=O)NC(=S)n2cnc3ccccc32)cc1OC`, 3%.
To `COc1ccc(NC(=O)c2ccc(Oc3ccc(C(=O)Nc4ccc(OC)cc4)cc3)cc2)cc1` belongs 12.5%; to `COc1cc(Cl)ccc1NC(=O)c1cnn2c(C(F)(F)F)cc(-c3ccco3)nc12`, 9.9%; to `O=C(NN1C(=O)c2ccccc2C1=O)c1cccc(F)c1`, -2.5%.
As for `COc1cccc2cc(C(=O)NNC(=O)c3ccc(Br)cc3)c(=O)oc12`, the displacement was 16.2%.
The result for `NS(=O)(=O)c1ccc(CNC(=O)c2ccccc2Cl)cc1` reads 9.2%; that for `CC(=O)Oc1ccc2occ(C(=O)c3ccc(C)cc3)c2c1`, -11.5%; that for `CCOc1ccc(/C=C/C(=O)c2cccs2)cc1`, -7.2%.
To `Cc1ccc(CN2CCN(N=Cc3ccccc3OCC(=O)O)CC2)c(C)c1` belongs 12.1%; to `COc1c(Cl)cc(C(=O)Nc2cc(C)ccc2C)cc1Cl`, 14.6%; to `CCOC(=O)c1ccccc1NC(=O)CN(c1ccc(C)c(Cl)c1)S(C)(=O)=O`, 1.1%.
The result for `Cc1cc(C)nc(NS(=O)(=O)c2ccc(NC(=O)c3cc(Cl)cc(Cl)c3)cc2)n1` reads 12%; that for `C=CCOn1c(=O)c(C)[n+]([O-])c2ccccc21`, 12.9%.
As for `COc1ccccc1NCN1C(=O)C2CCCCC2C1=O` (stereo not given), the displacement was 24.6%.
With `O=C1CC(N2CCN(c3ccccc3Cl)CC2)C(=O)N1c1cccc(Br)c1` (stereo not given), the displacement was 5.9%.
The result for `CCOc1cc(OCC)cc(C(=O)Nc2cccc(-c3nc4cc(C)ccc4o3)c2C)c1` reads -4.6%; that for `Cc1cccc(C)c1-n1c(C)cc(/C=N/NC(=O)CN2CCOCC2)c1C`, -10%.
The result for `CCc1ccc(NC(Nc2ccc(CC)cc2)=C(S(=O)(=O)CC)S(=O)(=O)CC)cc1` reads 9.3%; that for `COc1ccccc1N1CCN(CC(O)COC2CC(C)CCC2C(C)C)CC1` (stereo not given), -2.6%.
Take `CC(=O)Nc1ccc(NC(=O)CSc2nc3ccccc3o2)cc1`: the displacement turned out to be 12.2%.
To `O=C(O)CCC(=O)N1N=C(c2c(-c3ccccc3)c3cc(Cl)ccc3[nH]c2=O)CC1c1ccco1` (stereo not given) belongs 18%.
To `O=C1SC(Nc2ccccc2)C(=O)N1c1ccc(Br)cc1` (stereo not given) belongs 4.1%.
Take `COc1ccc(C(=O)/C=C/Nc2ccccn2)cc1`: the displacement came out at 9.1%.
Take `O=C(Nc1ccccc1)Nc1nc(-c2ccc(Cl)cc2Cl)cs1`: the displacement was -8.4%.
As for `O=C(N/N=C/c1ccc(O)cc1O)c1[nH]c2ccc([N+](=O)[O-])cc2c1-c1ccccc1`, the displacement stood at 22.7%.
The result for `Cc1ccc(/C=N/n2cnnc2)cc1[N+](=O)[O-]` reads 10.6%.
To `COc1ccc(C(=O)Nc2nc3c(C)cc(C)cc3s2)cc1Br` belongs 5.3%.
To `CCOC(=O)c1c(NC(=O)c2ccc(Cl)cc2Cl)sc(C(N)=O)c1C` belongs 88.7%.
Turning to `Cc1ccc(N2NC(=O)/C(=C/c3ccccc3O)C2=O)cc1C`, the displacement worked out at 24.6%.
To `Cn1c(NC(=O)c2ccc3c(c2)OCO3)cc(=O)n(C)c1=O` belongs 10%; to `CCOC(=O)CCc1cc(C(=O)OCC)c(CCC(=O)OCC)cc1C(=O)OCC`, -8.1%; to `COc1ccccc1OCC(=O)NC1CCS(=O)(=O)C1` (stereo not given), 6.1%.
In the case of `Cc1ccc(-c2csc(NC(=O)c3cccc(Br)c3)n2)cc1`, the displacement was 4.8%.
The result for `O=C1c2ccccc2C(=O)N1Cc1nc2ccc(I)cc2c(=O)o1` reads 1.6%.
Regarding `Cc1cccc(N2C(=O)/C(=C/c3ccccc3Cl)SC2=S)c1C`, the displacement amounted to 11.8%.
As to `Cc1ccc(N=Cc2c(O)n(-c3ccc(F)cc3)c(=O)[nH]c2=O)cc1`, the displacement turned out to be 49.9%.
To `Cc1ccc(N2CC(C(=O)NCc3ccccc3)CC2=O)cc1` (stereo not given) belongs -2.6%.
As for `Cc1ccc(-c2nn(-c3ccccc3)cc2C=C2C(=O)CC(C)(C)CC2=O)cc1`, the displacement came out at 8.3%.
The result for `Cc1ccc2nc(Nc3nc4ccccc4c(=O)[nH]3)nc(C)c2c1` reads 3.4%; that for `Cc1cccc(NC2=C(Cl)C(=O)N(c3ccc(Cl)cc3)C2=O)c1C`, 7.8%; that for `CC(N=Cc1cccc([N+](=O)[O-])c1)C1COc2ccccc2O1` (stereo not given), 8.6%.
The result for `O=C(CSc1ncn(-c2ccccc2)n1)c1ccc(Br)cc1` reads 11.5%; that for `Cc1ccc(CC/C=N/N=C2\NC(=O)CS2)o1`, -17%.
In the case of `COc1ccc(NC(=O)c2ccc3c(c2)C(=O)N(c2cccc(C)c2)C3=O)cc1`, the displacement is 17.3%.
To `C=CCn1c(SCC(=O)OCC)nc2sc3c(c2c1=O)CCC3` belongs -6.2%; to `NC(CC(=O)O)c1cccc(Br)c1` (stereo not given), 8%; to `CCOc1ccc(NC(=O)CN(c2cc(OC)ccc2OC)S(C)(=O)=O)cc1`, 1.4%.
Regarding `COc1ccc(C(=O)/C=C/Nc2cccc(C)c2)cc1`, the displacement is -5.1%.
Turning to `COc1ccc(CC(=O)Nc2ccc(C)c(NC(=O)c3ccccc3)c2)cc1OC`, the displacement worked out at 9.1%.
On to `O=C1NN(c2cccc(Cl)c2)C(=O)/C1=C\c1ccc(-c2cccc(C(=O)O)c2)o1`, for which the displacement was 29.6%.
To `O=C(CC1Sc2ccccc2NC1=O)Nc1cccc(C(=O)O)c1` (stereo not given) belongs -11.6%; to `COc1ccc(CCNC(=O)CN(c2ccc(Oc3ccccc3)cc2)S(C)(=O)=O)cc1OC`, 7.8%; to `CCSc1nnc(NC(=O)c2cc(-c3ccc(OC)cc3)nc3ccccc23)s1`, 0.6%.
On to `O=[N+]([O-])c1ccc(N2CCN(S(=O)(=O)c3ccccc3)CC2)cc1NC1CC1`, for which the displacement came out at 5.2%.
As to `COc1cccc(OC)c1C(=O)N(C)CC(OC)OC`, the displacement worked out at 3.4%.
To `O=C(COc1ccc(Cl)cc1)Nc1cccc(-c2nc3ccccc3s2)c1` belongs 12.1%.
As to `CCCOc1ccc(/C=N/Nc2nc(-c3ccccc3)cc(-c3ccccc3O)n2)c(O)c1`, the displacement is -2.2%.
To `Cc1cccc(OCCOCCN2CCC(C)CC2)c1C` belongs 5.6%; to `O=C(Nc1ccc(-c2nc3ccccc3o2)c(O)c1)c1ccccc1I`, -4%.
